# Reference: article PMC4336329 (PLoS ONE, 2015)
# Out of some 310,000 compounds screened, about 2,200 (0.71%) showed an effect of 50% or more. The effect is printed as a negative number. Some of the results follow.
# Target: human ether-à-go-go-related gene (hERG) potassium channel (human, UniProt Q12809)
# Test: primary screen, population patch clamp on CHO cells stably expressing hERG
# Chain of human ether-à-go-go-related gene (hERG) potassium channel (Q12809 whole entry, looked up): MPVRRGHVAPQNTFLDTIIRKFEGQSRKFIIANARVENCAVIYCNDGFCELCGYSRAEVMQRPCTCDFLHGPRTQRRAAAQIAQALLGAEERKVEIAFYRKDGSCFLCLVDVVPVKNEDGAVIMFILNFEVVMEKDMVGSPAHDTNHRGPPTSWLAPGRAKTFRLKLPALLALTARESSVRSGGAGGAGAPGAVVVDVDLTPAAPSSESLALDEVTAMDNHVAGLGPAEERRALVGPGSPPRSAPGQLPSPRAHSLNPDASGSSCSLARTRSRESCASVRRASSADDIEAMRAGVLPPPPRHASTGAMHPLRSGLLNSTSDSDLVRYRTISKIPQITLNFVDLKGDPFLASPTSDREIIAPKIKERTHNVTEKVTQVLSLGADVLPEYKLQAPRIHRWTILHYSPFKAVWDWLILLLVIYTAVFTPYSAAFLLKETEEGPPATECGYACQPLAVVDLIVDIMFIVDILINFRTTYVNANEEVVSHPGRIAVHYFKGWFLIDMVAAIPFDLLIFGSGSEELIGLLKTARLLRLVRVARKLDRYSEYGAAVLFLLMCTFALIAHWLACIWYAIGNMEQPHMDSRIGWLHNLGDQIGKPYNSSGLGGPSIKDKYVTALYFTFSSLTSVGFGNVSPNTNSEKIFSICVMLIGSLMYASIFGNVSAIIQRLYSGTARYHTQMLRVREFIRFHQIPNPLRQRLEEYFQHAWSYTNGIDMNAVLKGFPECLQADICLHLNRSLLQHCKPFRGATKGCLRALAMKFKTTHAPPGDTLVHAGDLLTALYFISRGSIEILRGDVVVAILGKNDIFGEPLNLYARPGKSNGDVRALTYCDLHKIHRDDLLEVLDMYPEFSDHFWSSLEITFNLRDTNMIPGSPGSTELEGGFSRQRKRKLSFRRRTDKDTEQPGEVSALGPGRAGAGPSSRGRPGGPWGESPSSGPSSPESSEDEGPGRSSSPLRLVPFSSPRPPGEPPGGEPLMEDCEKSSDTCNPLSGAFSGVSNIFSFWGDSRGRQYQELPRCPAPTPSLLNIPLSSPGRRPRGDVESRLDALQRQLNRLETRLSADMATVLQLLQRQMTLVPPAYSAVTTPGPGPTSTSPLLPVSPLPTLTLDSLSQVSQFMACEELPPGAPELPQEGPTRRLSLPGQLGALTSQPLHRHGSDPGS
row,SMILES,"hERG current change (%, negative = inhibition) at 1uM [%]"
1,Cc1ccc(C(C(=O)NC2CCCCC2)N(C(=O)c2csnn2)c2ccccc2F)o1 (centres unmarked),12.7
2,CCOc1ccc(NC(=O)c2ccc(N)cc2)cc1,3.78
3,COc1ccc(-c2cc(C(F)(F)F)c3c(=O)n(-c4ccccc4)[nH]c3n2)cc1,16
4,COc1ccc(Cl)cc1NC(=O)CNc1ccccc1N1CCOCC1,25.4
5,O=C(c1cc2ccccc2o1)N1CCCCCC1,10
6,COc1nc2c(C)cccc2cc1-c1noc(-c2ccco2)n1,-5.92
7,NC(=O)c1c(NC(=O)c2cc3ccccc3o2)sc2c1CCC2,9.41
8,O=C(CNS(=O)(=O)c1ccc(Br)cc1Cl)OCC(=O)N1CCCC1=O,4.8
9,O=C(N/N=C\c1c(O)ccc2ccccc12)c1ccc(Cn2cccn2)o1,1.04
10,O=c1[nH]c(C2CCCN(S(=O)(=O)c3ccccc3)C2)nc2c1nnn2Cc1ccc(OC(F)(F)F)cc1 (centres unmarked),25.8
11,COc1ccc(CN2CC(C(N)=O)Oc3ccccc32)cc1F (centres unmarked),13.3
12,Cc1oc2c(CN3CCCCC3C)c(O)ccc2c(=O)c1-c1ccc(Br)cc1 (centres unmarked),-13.4
13,CCCn1c(SCC(=O)Nc2ccccc2C(=O)OC)nc2c1c(=O)n(C)c(=O)n2C,-4.05
14,Cc1cccc(C(=O)NCC(=O)N2CC(=O)Nc3ccccc32)c1,22.6
15,CC(NC(=O)c1ccccc1F)c1nnc(SCC(=O)N2CCN(c3ccccc3)CC2)n1C (centres unmarked),5.17
16,O=C(c1ccco1)N1CCN(C(=O)c2ccc(-c3cccc(C(F)(F)F)c3)o2)CC1,-63.5
17,COc1ccccc1N1CCN(C(=O)CCc2nnc3ccc(N4CCC(C)CC4)nn23)CC1,-3.25
18,COc1ccc(NC(=O)Nc2ccc3c(c2)CCC3)cc1,-3.76
19,CCCCc1ccc(NC(=O)CSc2nc(=O)n(CCN(CC)CC)c3c2CCCC3)cc1,2.3

row,SMILES,"hERG current change (%, negative = inhibition) at 1uM [%]"
1,CCCCc1ccc(-c2csc(/C(C#N)=C\c3ccc(C)o3)n2)cc1,11.5
2,CCC(=O)N1CCC2(CC1)Oc1ccc(F)cc1C(=O)C21CC(c2ccc(Cl)cc2)=NO1 (centres unmarked),7.96
3,CC(Cc1ccccc1)C(=O)NCc1nc2ccccc2s1 (centres unmarked),10.4
4,Cc1ccc(NC(=O)c2cc([N+](=O)[O-])ccc2NCc2cccnc2)cc1Cl,0.0426
5,CCOC(=O)N1CCN(S(=O)(=O)c2ccc(C(=O)NNc3nc4ccc(Cl)cc4s3)cc2)CC1,6.7
6,CCN(CC)S(=O)(=O)c1cccc(C(=O)N[C@H](C(=O)Nc2nc3ccc(F)cc3s2)C(C)C)c1,4.44
7,CCc1ccc(NC(=O)CS(=O)CC(=O)Nc2ccc(F)cc2F)cc1 (centres unmarked),1.48
8,CCCOc1ccccc1C(=O)NCCCC(=O)O,6.66
9,CC(C(=O)c1ccc2ccccc2c1)N1CCCCC1 (centres unmarked),4.52
10,COC(=O)Cc1ccc(NC(=S)NCc2ccccc2Cl)cc1,4.85
11,CCOC(=O)c1c(NC(C)=O)sc2c1CCC(C=NCCCN(CC)CC)=C2Sc1ccccc1,8.71
12,Cc1cc(Cl)ccc1NC(=S)N1CCN(C(=O)c2ccco2)CC1,4.35
13,COc1ccc(CCNC(=O)c2ccc(-c3ccc([N+](=O)[O-])cc3Cl)o2)cc1,7.52
14,Cc1ccc(C(=O)N2CCCC2)cc1S(=O)(=O)N1CCCCC1,13.3
15,COC(=O)C1CCN(C(=O)c2cc(=O)[nH]c3ccccc23)CC1,4.27
16,COC(=O)c1cc(S(=O)(=O)N2CCC(c3cc(OC)ccc3OC)C2)c[nH]1 (centres unmarked),12.1
17,NC(=O)Cc1nc(-c2ccc(F)cc2)cs1,10.1
18,O=C(CN1CCC(C(O)(c2ccccc2)c2ccccc2)CC1)Nc1cc(Cl)ccc1Cl,1.18
19,O=C(Cn1cncn1)N/N=C/c1ccncc1,6.34

row,SMILES,"hERG current change (%, negative = inhibition) at 1uM [%]"
1,O=[N+]([O-])c1cc(C(F)(F)F)ccc1NCCCCNS(=O)(=O)c1ccc(Cl)cc1,2.8
2,S=C(Nc1cccnc1)NC1CCCC1,11
3,CC1CCN(C(=O)COC(=O)C2CCN(S(=O)(=O)c3ccc4c(c3)OCCO4)CC2)CC1,2.4
4,C[C@H](NC(=O)c1nc[nH]c1C(=O)N(C)Cc1ccccc1)c1ccccc1,10.6
5,Cc1ccc(NC(=O)COC(=O)/C=C/c2ccco2)cc1S(=O)(=O)N(C)C,0.273
6,Cc1nn2c(=O)nc3sc4c(c3c2[nH]c1=O)CCCC4,11
7,O=C(c1cccc(S(=O)(=O)N2CCCCC2)c1)N1CCCCC1,9.44
8,Cc1ccc(-c2cc(C(=O)O)c3ccccc3n2)s1,9.63
9,COC(=O)c1ccc(COc2ncnc3sccc23)cc1,9.93
10,C=CCNc1nc(-c2ccccc2)nc(-n2ccnc2)n1,-6.16
11,Cc1ccc(O)c(Cn2nnc3ccccc32)c1,18.2
12,COCCNc1cnn(-c2ccccc2)c(=O)c1Cl,15.7
13,CC1CCCC(C)N1C(=O)COC(=O)COc1ccccc1C#N (centres unmarked),10.2
14,COc1cccc(CNC(=O)COC(=O)c2nc(Cl)c(Cl)c(Cl)c2Cl)c1,7.37
15,O=[N+]([O-])c1nn(-c2ccc(Cl)cc2)n(O)c1=NCc1ccccc1,11.5
16,O=C(Nc1ccc(Cl)c(Cl)c1)Nc1cc(C(=O)N2CCOCC2)ccc1N1CCCCC1,11.5
17,CC(C)OC(=O)CSc1nnc(Cc2ccccc2)n1CC1CCCO1 (centres unmarked),10.7
18,Cc1ccc(CN(C)C(=O)c2cc(COc3cccc(C(F)(F)F)c3)on2)o1,-8.96
